In publication PMC4336329 (PLoS ONE, 2015):
The whole screen tested about 310,000 compounds, of which about 14,000 (4.5%) showed an effect of 50% or more. The effect is printed as a negative number. Some of the results follow.

Target: human ether-à-go-go-related gene (hERG) potassium channel (human, UniProt Q12809)
Experiment: primary screen, population patch clamp on CHO cells stably expressing hERG
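Note: peak tail current of the secondary pulse compared with the same well before compound.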

human ether-à-go-go-related gene (hERG) potassium channel, sequence (Q12809 whole entry, looked up): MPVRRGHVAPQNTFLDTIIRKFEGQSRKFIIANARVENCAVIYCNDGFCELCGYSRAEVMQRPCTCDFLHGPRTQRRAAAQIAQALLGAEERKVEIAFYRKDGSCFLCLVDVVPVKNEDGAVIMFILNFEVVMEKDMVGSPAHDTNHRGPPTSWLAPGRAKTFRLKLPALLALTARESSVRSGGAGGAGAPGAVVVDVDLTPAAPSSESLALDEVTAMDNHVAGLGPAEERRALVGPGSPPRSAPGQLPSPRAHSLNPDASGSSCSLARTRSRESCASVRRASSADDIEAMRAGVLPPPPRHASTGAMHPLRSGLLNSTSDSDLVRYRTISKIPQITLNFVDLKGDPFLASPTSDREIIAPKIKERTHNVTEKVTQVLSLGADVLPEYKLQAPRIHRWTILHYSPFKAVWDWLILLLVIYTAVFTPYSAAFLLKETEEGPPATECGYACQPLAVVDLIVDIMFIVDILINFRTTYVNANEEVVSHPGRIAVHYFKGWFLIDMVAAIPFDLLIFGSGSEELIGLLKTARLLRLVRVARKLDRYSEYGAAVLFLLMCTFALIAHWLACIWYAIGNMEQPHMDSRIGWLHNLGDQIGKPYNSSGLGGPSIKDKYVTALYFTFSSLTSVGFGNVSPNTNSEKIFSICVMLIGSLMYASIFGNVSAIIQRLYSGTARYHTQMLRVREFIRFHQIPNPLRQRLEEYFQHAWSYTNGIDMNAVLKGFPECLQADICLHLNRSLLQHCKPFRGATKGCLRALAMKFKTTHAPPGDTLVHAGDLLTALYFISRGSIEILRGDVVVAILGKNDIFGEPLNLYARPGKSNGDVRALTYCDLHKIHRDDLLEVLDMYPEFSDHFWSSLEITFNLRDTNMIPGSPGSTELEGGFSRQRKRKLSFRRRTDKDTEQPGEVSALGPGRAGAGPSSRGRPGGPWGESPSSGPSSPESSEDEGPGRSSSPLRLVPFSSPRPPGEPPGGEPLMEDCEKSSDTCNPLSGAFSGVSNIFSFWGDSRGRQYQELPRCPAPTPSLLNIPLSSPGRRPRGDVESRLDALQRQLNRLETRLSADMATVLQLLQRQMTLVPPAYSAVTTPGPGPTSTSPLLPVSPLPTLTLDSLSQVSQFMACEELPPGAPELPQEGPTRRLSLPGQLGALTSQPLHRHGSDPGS

SMILES	hERG current change (%, negative = inhibition) at 10uM
O=S(=O)(Nc1nc2ccccc2nc1Nc1ccc(N2CCOCC2)cc1)c1cc(Cl)ccc1Cl	-0.376%
COC(=O)Cn1cnc2sc3c(c2c1=O)CCCC3	8.7%
COc1ccc(CNC(=O)C(c2ccc(C)o2)N(Cc2cccs2)C(=O)Cc2cccs2)cc1 (centres unmarked)	4.17%
NC(=O)COC(=O)c1oc2ccccc2c1CSc1ccc(Cl)cc1	-4.62%
Cc1ccc(NC(c2ccccc2)c2nc3ccccc3[nH]c2=O)cc1 (centres unmarked)	-9.1%
COCCN(C(=O)COC(=O)CCC1CCCC1)c1c(N)n(Cc2ccccc2)c(=O)[nH]c1=O	-0.511%
COc1ccc(C(=O)C2CCCN(Cc3sc(N4CCCC4)nc3Cl)C2)c(OC)c1 (centres unmarked)	-49.7%
N#CN=C(N)c1ccccc1	0.592%
CCOc1cccc(CN2CCCC(C(=O)c3cc(Cl)ccc3OC)C2)c1O (centres unmarked)	-64.3%
COc1ccc(C(=O)NNC(=O)c2ccccc2[N+](=O)[O-])cc1	4.27%
Cc1ccc(S(=O)(=O)CCC(=O)Nc2nnc(-c3ccco3)o2)cc1	0.92%
CC(NC(=O)c1ccc(N(C)C)cc1)C(c1cccs1)N1CCN(C)CC1 (centres unmarked)	-8.33%
Cc1ccc(CNC(=O)C2CCN(S(=O)(=O)c3ccc(Br)s3)CC2)cc1	3.77%
CCOC(=O)C1CCN(C(=O)C2CCC(=O)N(Cc3cccc(C(F)(F)F)c3)C2)CC1 (centres unmarked)	-3.9%
CCN(C(=O)c1ccc(N2CC3CC(C2)c2cccc(=O)n2C3)c(NC(=O)c2ccncc2)c1)c1cccc(C)c1 (centres unmarked)	6.84%
Cc1cccc(C(=O)N2CCCC(N3CCN(Cc4ccc5c(c4)OCO5)CC3)C2)n1 (centres unmarked)	10.2%
CCOc1ccc(S(=O)(=O)N2CCOCC2)cc1NC(=O)CN1C(=O)NC(CC)(c2ccccc2)C1=O (centres unmarked)	-73.5%
Cc1ccc(/C=N/NC(=O)c2cccnc2)o1	20.8%
COc1ccc(Cl)cc1NC(=O)CN1CCN(S(=O)(=O)N2CCCCC2)CC1	-9.48%
C/C(=C(\C#N)C(=O)NCc1ccccc1)N(C)C	4.35%
CC(C)C(=O)N1CCN(c2ccc([N+](=O)[O-])cc2Cl)CC1	-30.9%
Cc1cc(NC(=O)c2cc(-c3cccs3)nc3ccccc23)no1	0.926%
CCCn1c(SCC(=O)Nc2ccccc2CC)nnc1C(C)C	3.75%

SMILES	hERG current change (%, negative = inhibition) at 10uM
O=c1[nH]c(=S)[nH]c(O)c1N=Nc1ccc(SC(F)F)cc1	-9.9%
N#Cc1nc(-c2ccccc2Cl)oc1NCc1ccco1	-8.28%
O=C(Nc1ccc2c(c1)OCO2)C1CCN(c2ccc(S(=O)(=O)N3CCOCC3)cc2)CC1	7.9%
CC1(C)CC(=O)C2=C(C1)OC(N)=C(C#N)[C@@H]2c1ccccc1[N+](=O)[O-]	-17.2%
CC(=O)Nc1ccccc1NC(=O)c1ccccc1-c1ccccc1	10.1%
CCOc1ccccc1NC(=O)N1CCCC1C(=O)NCc1cccs1 (centres unmarked)	10.2%
CN(C)S(=O)(=O)N1CCC(Cc2ccccc2)CC1	-9.65%
CC1=CC(C)(C)N(S(=O)(=O)c2ccc(C)cc2)c2cc(C)ccc21	-4.88%
CC(=O)Nc1nnc(C2=COCCO2)o1	16.4%
CN1CCN(C(=O)c2ccc(CN3CCOCC3)cc2)CC1	10.5%
COc1ccc(NC(=O)CCC(=O)N2CCCC2)c([N+](=O)[O-])c1	9.86%
Cc1nn(Cc2ccccc2)c(C)c1C(=O)OCC(=O)Nc1cc(S(C)(=O)=O)ccc1Cl	-1.75%
Cc1cccc(/C(N)=N/OC(=O)COc2ccccc2Cl)c1	4.39%
CCOC(=O)c1cnc(SSc2ncc(C(=O)OCC)c(N)n2)nc1N	1.18%
COC(=O)/C=C1\SC(=Nc2ccc(OC)cc2)NC1=O	6.99%
Cc1ccc(C)c(NC(=O)C(Sc2nc3ccc(C)cc3[nH]2)c2ccccc2)c1 (centres unmarked)	-2.75%
Cc1c(NC(=O)OCCNC(=O)COc2c(Cl)cccc2Cl)sc(=S)n1C	-6.16%
Cc1ccc(N(CCC#N)C(=O)CN2C(=O)NC(Cc3ccccc3)C2=O)cc1 (centres unmarked)	-11.1%
O=C(O)c1cc([N+](=O)[O-])ccc1N1CCCCC1	-1.28%
Cc1ccc(-c2n[nH]c(=S)n2C)cc1Cl	14.1%
O=C(CNCc1ccc(F)cc1)Nc1ccccc1[N+](=O)[O-]	-23.4%
COC(=O)c1ccc2[nH]cc(CCO)c2c1	17.1%
O=C(COC(=O)Cn1[nH]c(=O)c2ccccc2c1=O)NNC(=O)c1ccc(Br)cc1	5.77%

SMILES	hERG current change (%, negative = inhibition) at 10uM
Cc1nc(-c2nc(CC(=O)NNC(=O)c3ccc(Cl)cc3)cs2)cs1	-2.6%
COc1ccc2[nH]c3c(=O)n(Cc4ccncc4)cnc3c2c1	-11%
CC1=C(C(=O)OCc2ccccc2)C(c2ccc3ccccc3c2)NC(=O)N1CCCC(=O)O (centres unmarked)	-12%
COc1cc(OC)cc(C(=O)NCc2cccnc2)c1	5.4%
C=CCn1c(=S)sc2c(=O)[nH]c(C)nc21	8.05%
CSc1snc(SCC(N)=O)c1C#N	20.6%
COc1ccc(-c2nnco2)cc1OC	-6.94%
COc1ccc(NC(=S)N(CCN(C)C)C(C)c2ccncc2)cc1Cl (centres unmarked)	-59.9%
N#Cc1ccc(-c2cccnc2)nc1SCC(=O)Nc1sc2c(c1C#N)CCC2	-3.44%
CN1CCN(CCC(=O)Nc2ccccc2Cl)CC1	-1.75%
CCCCn1c(SCC(=O)N2CCc3ccccc32)nnc1-c1ccncc1	-49.8%
Cn1c(=O)n(C/C=C/c2ccccc2)c(=O)c2c1nc1n2CCCN1Cc1ccccc1	-0.911%
N=c1n(Cc2ccccc2)c2ccccc2n1Cc1ccccc1	-62.1%
CCn1c(SCc2ccc(C(=O)Nc3nccs3)cc2)nnc1-c1ccc(N)cc1	-22.2%
c1ccc(CNC2=NCCS2)cc1	18.1%
COc1cc(/C=N/NC(=O)Nc2ccccc2)ccc1OC(C)=O	11.7%
O=C(Cn1cc2c(n1)CCCCC2)N1CCCCC1	2.46%
CCCc1nc(NCc2ccco2)c(C#N)c2c1COC(C)(C)C2	6.37%
CCC(C)Nc1nc2ccccc2n2c(C)nnc12 (centres unmarked)	-18.9%
COc1cccc(C(=O)CC(=O)C(=O)Nc2cc(OC)c(OC)c(OC)c2)c1	0.438%
O=C1CC(c2ccc(F)cc2)CC(O)=C1C=NCCN1CCNCC1 (centres unmarked)	6.09%
C/C(=N\NC(=O)C(N)=O)c1ccc(Br)cc1	8.48%
O=S(=O)(c1cc(C(F)(F)F)ccc1Cl)N1CCCCCC1	-2.01%

SMILES	hERG current change (%, negative = inhibition) at 10uM
C/C(=N\NC(=O)c1ccc(NS(=O)(=O)c2cccs2)cc1)c1ccc2ccccc2c1	-5.59%
CCCn1c(C(C)Nc2nc(-c3ccc(C)cc3)cs2)nc2cc(Cl)c(Cl)cc21 (centres unmarked)	0.722%
CCOC(=O)c1[nH]c(C)c(/C(O)=C2\C(=O)C(=O)N(CCN3CCOCC3)C2c2ccco2)c1C (centres unmarked)	6.4%
CNC(=S)NC1CC2CCCC(C1)N2CC(C)C (centres unmarked)	1.02%
CCOC(=O)Cn1cc(C=C2C(=O)N(C)C(=O)N(C)C2=O)c2ccccc21	4.93%
O=C(COC(=O)CNC(=O)c1cccs1)Nc1ccccc1C(F)(F)F	49%
Cc1cccc(NC(=O)C2CCCN(S(=O)(=O)c3cccc4nsnc34)C2)n1 (centres unmarked)	-16.9%
Cc1ccccc1N(C(=O)c1csnn1)C(C(=O)NC1CCCCC1)c1ccncc1 (centres unmarked)	10.7%
O=S(=O)(Nc1ncccn1)c1cc(Cl)ccc1Cl	1.26%
COc1ccc(OC)c(NC(=O)CN(C)CC(=O)Nc2ccccc2Br)c1	3.51%
CC(CCOC1=NS(=O)(=O)c2ccccc21)NC(=O)C(=O)Nc1ccccc1 (centres unmarked)	4.69%
O=C(COC(=O)C1COc2ccccc2O1)Nc1cccc(S(=O)(=O)N2CCCCC2)c1 (centres unmarked)	3.48%
N#Cc1ccccc1S(=O)(=O)N1CCN(CC(O)COc2ccccc2F)CC1.O=C(O)C(=O)O (centres unmarked)	-8.58%
CN(C)C(CNC(=O)CN1C(=O)NC2(CCc3ccccc32)C1=O)c1ccco1 (centres unmarked)	21.9%
Clc1ccccc1SCc1nc2ccccc2[nH]1	0.186%
O=C(CN1C(=O)C2C3C=CC(C4CC34)C2C1=O)NCc1ccco1 (centres unmarked)	-9.93%
O=S(=O)(NCCN1CCOCC1)c1ccc(-c2ccc(S(=O)(=O)NCCN3CCOCC3)cc2)cc1	23.4%
COCc1cc(=O)[nH]c(Nc2nc3ccc(C)cc3o2)n1	-10.3%
CC1CCCCC1NC(=O)Cn1c(CN2CCCCC2)nc2ccccc2c1=O (centres unmarked)	-24.6%
COc1ccccc1N1CCN(C(=O)c2ccc3c(=O)n(Cc4ccco4)c(=S)[nH]c3c2)CC1	-17.4%
